# From PubChem BioAssay AID1963975 (Molecular Pharmacology Branch, DTP, NCI, 2024)
# For part of its entries the source gives two or more results. The other results are left out here. An entry can have further records. Results that share an entry repeat one measurement in other runs, samples, wells, individuals or studies. Signs of the kind (2×) say how often a value occurs here.
# System: 624824-186-R-J2-PDC multicell spheroids, viability
# Test: Anticancer human tumor 624824-186-R-J2-PDC patient-derived colon adenocarcinoma cell line growth inhibition [PI3K]
# Conditions: compound alone 0.000316 µM; stronger effect = lower value
# Source text: Combinatorial screen of targeted agents with the PI3K inhibitors inavolisib, alpelisib, duvelisib, and copanlisib in multi-cell type tumor spheroids
# A high-throughput screen of multi-cell type tumor spheroids was designed to identify active combinations of targeted small molecules and PI3K pathway inhibitors. Complex spheroids include a stromal component modeled by human endothelial cells (HUVEC) and fibroblasts modeled by human mesenchymal stem cells (MSCs). The concentration ranges selected for each drug and investigational agent were based upon clinically achievable concentrations if the clinical Cmax of the agent was known.
# Compounds. The drugs and investigational agents: inavolisib (NSC800729), alpelisib (NSC765974), duvelisib (NSC772469), copanlisib (NSC816437), ipatasertib (NSC767898), afuresertib (NSC778305), talazoparib (NSC767125), sapanisertib (NSC764658), selumetinib (NSC741078), tovorafenib (DAY101, NSC766906), vemurafenib (NSC761431), ravoxertinib (NSC781343), sotorasib (NSC818433), MRTX1133 (NSC 836407), abemaciclib (NSC 768073), palbociclib (NSC758247), venetoclax (NSC 766270), SY5609 (NSC837396), enzalutamide (NSC755605), and darolutamide (NSC825331), were obtained from the National Cancer Institute (NCI) Developmental Therapeutics Program Chemical Repository. The FDA-approved anticancer drug set is available from the NCI Developmental Therapeutics Program. […] The stock solutions were prepared in dimethyl sulfoxide (DMSO, Sigma-Aldrich, St. Louis, MO, cat. D2650) at 800-fold the tested concentration and stored at -70 degrees C prior to their use. All drugs and investigational agents were tested over a range starting from a high concentration at or near the clinical Cmax and decreasing in half-log increments. If the clinical Cmax for an agent had not been determined, the highest concentration tested was 10 microM.
# Cell Culture. All cells were maintained in an incubator at 37 degrees C and 5% CO2 with 95% humidity. The PDC lines were cultured according to standard operating procedures established by the NCI PDMR (https://pdmr.cancer.gov/sops/default.htm). All PDCs were thawed and cultured in Matrigel-coated flasks prepared with a working solution of 1X Ham's F-12 nutrient mix, without supplementation (Invitrogen, Waltham, MA, cat. 11765054), 100 U/mL penicillin-streptomycin (Invitrogen, cat. 15140122), and 2.5% Matrigel (Corning Inc., Corning, NY, cat. 354248) for the first three passages. The 354836-022-R-J1-PDC, 475296-252-R-J1-PDC, and 997726-040-R-J2-PDC lines were cultured in 6A media, which includes advanced DMEM/F-12 (Thermo Fisher Scientific, cat. 12634028), 10 mM HEPES (Thermo Fisher Scientific, cat. 15630080), 1X GlutaMAX supplement (Thermo Fisher Scientific, cat. 35050061), 0.1 mg/mL primocin (InvivoGen, San Diego, CA, cat. ant-pm-2), 10% defined fetal bovine serum, heat inactivated (HyClone Laboratories Inc., Logan, UT, cat. SH30070.03HI), 50% L-WRN conditioned media (ATCC, cat. CRL-3276), 1.25 mM N-Acetyl-L-cysteine (Sigma-Aldrich, cat. A9165), 10 mM nicotinamide (Sigma-Aldrich, cat. N0636), 1X B-27 supplement (Thermo Fisher Scientific, cat. 17504044), 1X N-2 supplement (Thermo Fisher Scientific, cat. 17502048), and 10 microM Y-27632 dihydrochloride (Tocris Bioscience, Bristol, United Kingdom, cat. 1254). The 624824-186-R-J2-PDC line was cultured in 6C/Colon 1B media, which includes all 6A media components plus 50 ng/mL human EGF recombinant protein (Thermo Fisher Scientific, cat. PHG0311). […]
# 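Note: spheroids exposed to agents for 7 days before viability read; 100% = DMSO vehicle treated spheroids.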
row,Compound,"viability, T/C"
1,CC(=O)c1c(C)c2cnc(Nc3ccc(N4CCNCC4)cn3)nc2n(C2CCCC2)c1=O,"85.8, 114, 99.8, 109%"
2,CC(C)n1nc(-c2ccc3oc(N)nc3c2)c2c(N)ncnc21,"79, 95.9, 105, 90.5%"

# Same assay, conditions: compound alone 0.001 µM; stronger effect = lower value
row,Compound,"viability, T/C"
1,CC(=O)c1c(C)c2cnc(Nc3ccc(N4CCNCC4)cn3)nc2n(C2CCCC2)c1=O,"89.3, 74.9, 77.3, 102%"
2,CC(C)n1nc(-c2ccc3oc(N)nc3c2)c2c(N)ncnc21,"70.2, 88.3, 80.2, 104%"
3,Cn1ncnc1[C@H]1c2n[nH]c(=O)c3cc(F)cc(c23)N[C@@H]1c1ccc(F)cc1,"89.9, 109, 91.5, 80.9%"

# Same assay, conditions: compound alone 0.00316 µM; stronger effect = lower value
row,Compound,"viability, T/C"
1,COc1c(OCCCN2CCOCC2)ccc2c3n(c(=NC(=O)c4cnc(N)nc4)nc12)CCN3,"91, 82.9, 81.9, 88.7, 107, 88.3, 90.4, 92.8%"
2,CC(Nc1ccc2c(c1)OCCn1cc(N3C(=O)OCC3C(F)F)nc1-2)C(N)=O (stereo not drawn),"90.5, 98.6, 91.3, 88.6, 112, 92.1, 94.1, 86.5%"
3,CCN1CCN(Cc2ccc(Nc3ncc(F)c(-c4cc(F)c5nc(C)n(C(C)C)c5c4)n3)nc2)CC1,"71.7, 85.6, 74.4, 101%"

# Same assay, conditions: compound alone 0.01 µM; stronger effect = lower value
row,Compound,"viability, T/C"
1,CC(=O)c1c(C)c2cnc(Nc3ccc(N4CCNCC4)cn3)nc2n(C2CCCC2)c1=O,"83.2, 109, 94.4, 87.1%"
2,Cn1ncnc1[C@H]1c2n[nH]c(=O)c3cc(F)cc(c23)N[C@@H]1c1ccc(F)cc1,"103, 116, 81.5, 117%"
3,CCN1CCN(Cc2ccc(Nc3ncc(F)c(-c4cc(F)c5nc(C)n(C(C)C)c5c4)n3)nc2)CC1,"109, 114, 73.4, 99.2%"

# Same assay, conditions: compound alone 0.03 µM; stronger effect = lower value
row,Compound,"viability, T/C"
1,Cn1cnc2c(F)c(Nc3ccc(Br)cc3Cl)c(C(=O)NOCCO)cc21,"90.6, 101, 68.7, 91.5%"

# Same assay, conditions: compound alone 0.0316 µM; stronger effect = lower value
row,Compound,"viability, T/C"
1,CC(=O)c1c(C)c2cnc(Nc3ccc(N4CCNCC4)cn3)nc2n(C2CCCC2)c1=O,"75.5, 94.7, 101, 80.8%"
2,CC1(C)CCC(Nc2ncc(C(F)(F)F)c(-c3c[nH]c4c(P(C)(C)=O)c(C#N)ccc34)n2)CN1 (stereo not drawn),"76.6, 91.9, 89.1, 64.4%"
3,CC(Nc1ncnc2nc[nH]c12)c1cc2cccc(Cl)c2c(=O)n1-c1ccccc1 (stereo not drawn),"80.9, 82.1, 78.7, 98.5, 87.3, 88.5, 115, 99.8%"
4,C[C@@H](NC(=O)c1ncnc(N)c1Cl)c1ncc(C(=O)Nc2cc(C(F)(F)F)c(Cl)cn2)s1,"98, 117, 89.2, 112%"
5,Cn1ncc(Cl)c1-c1cc(C(=O)NC(CN)Cc2cccc(F)c2)sc1Cl (stereo not drawn),"75.9, 85.8, 85.7, 101%"
6,C=CC(=O)N1CCN(c2nc(=O)n(-c3c(C)ccnc3C(C)C)c3nc(-c4c(O)cccc4F)c(F)cc23)C(C)C1 (stereo not drawn),"94.6, 111, 75.6, 82.2%"
7,CC(C)NCC(C(=O)N1CCN(c2ncnc3c2C(C)CC3O)CC1)c1ccc(Cl)cc1 (stereo not drawn),"83.1, 93.2, 102, 110%"
8,CC1(C)CCC(CN2CCN(c3ccc(C(=O)NS(=O)(=O)c4ccc(NCC5CCOCC5)c([N+](=O)[O-])c4)c(Oc4cnc5[nH]ccc5c4)c3)CC2)=C(c2ccc(Cl)cc2)C1,"96.1, 109, 90.8, 80.7%"
9,CNC(=O)c1ccc(N2C(=S)N(c3ccc(C#N)c(C(F)(F)F)c3)C(=O)C2(C)C)cc1F,"108, 96, 94.8, 77.8%"
10,Cc1nc(NC(=O)N2CCCC2C(N)=O)sc1-c1ccnc(C(C)(C)C(F)(F)F)c1 (stereo not drawn),"97.5, 77.1, 81.6, 104, 89.9, 75.8, 78.3, 94.1%"

# Same assay, conditions: compound alone 0.0949 µM; stronger effect = lower value
row,Compound,"viability, T/C"
1,Cn1cnc2c(F)c(Nc3ccc(Br)cc3Cl)c(C(=O)NOCCO)cc21,"91.2, 73.1, 59.2, 73.5%"

# Same assay, conditions: compound alone 0.1 µM; stronger effect = lower value
row,Compound,"viability, T/C"
1,CC(Cn1ccc(-c2ccc(C#N)c(Cl)c2)n1)NC(=O)c1cc(C(C)O)[nH]n1 (stereo not drawn),"101, 88.4, 104, 117%"
2,CC(Nc1ncnc2nc[nH]c12)c1cc2cccc(Cl)c2c(=O)n1-c1ccccc1 (stereo not drawn),"92.8, 80.4, 78.3, 85.2, 111, 83, 88.4, 84.5%"
3,C[C@@H](NC(=O)c1ncnc(N)c1Cl)c1ncc(C(=O)Nc2cc(C(F)(F)F)c(Cl)cn2)s1,"114, 99.2, 109, 80.4%"
4,Cn1nccc1Nc1nccc(-c2ccn(C(CO)c3ccc(Cl)c(F)c3)c(=O)c2)n1 (stereo not drawn),"95.7, 89.3, 61.8, 71%"
5,C#Cc1c(F)ccc2cc(O)cc(-c3ncc4c(N5CC6CCC(C5)N6)nc(OCC56CCCN5CC(F)C6)nc4c3F)c12 (stereo not drawn),"80.3, 109, 82, 100%"
6,CNC(=O)c1ccc(N2C(=S)N(c3ccc(C#N)c(C(F)(F)F)c3)C(=O)C2(C)C)cc1F,"98, 68.1, 93.5, 116%"

# Same assay, conditions: compound alone 0.3 µM; stronger effect = lower value
row,Compound,"viability, T/C"
1,Cn1cnc2c(F)c(Nc3ccc(Br)cc3Cl)c(C(=O)NOCCO)cc21,"70.4, 85.2, 54.4, 73.6%"

# Same assay, conditions: compound alone 0.316 µM; stronger effect = lower value
row,Compound,"viability, T/C"
1,C[C@@H](NC(=O)c1ncnc(N)c1Cl)c1ncc(C(=O)Nc2cc(C(F)(F)F)c(Cl)cn2)s1,"105, 84.4, 72.2, 100%"
2,CNC(=O)c1ccc(N2C(=S)N(c3ccc(C#N)c(C(F)(F)F)c3)C(=O)C2(C)C)cc1F,"80.1, 105, 106, 99%"
3,Cc1nc(NC(=O)N2CCCC2C(N)=O)sc1-c1ccnc(C(C)(C)C(F)(F)F)c1 (stereo not drawn),"68, 76.3, 89.7, 86.5, 97.4, 80.1, 82.3, 74.2%"

# Same assay, conditions: compound alone 1 µM; stronger effect = lower value
row,Compound,"viability, T/C"
1,CC(C)NCC(C(=O)N1CCN(c2ncnc3c2C(C)CC3O)CC1)c1ccc(Cl)cc1 (stereo not drawn),"72.2, 101, 89.6, 89%"
2,CCCS(=O)(=O)Nc1ccc(F)c(C(=O)c2c[nH]c3ncc(-c4ccc(Cl)cc4)cc23)c1F,"67.6, 101, 95.3, 103%"
3,CC1(C)CCC(CN2CCN(c3ccc(C(=O)NS(=O)(=O)c4ccc(NCC5CCOCC5)c([N+](=O)[O-])c4)c(Oc4cnc5[nH]ccc5c4)c3)CC2)=C(c2ccc(Cl)cc2)C1,"107, 67.9, 65, 86.3%"
4,C#Cc1c(F)ccc2cc(O)cc(-c3ncc4c(N5CC6CCC(C5)N6)nc(OCC56CCCN5CC(F)C6)nc4c3F)c12 (stereo not drawn),"123, 98.3, 83.6, 93.2%"
5,CNC(=O)c1ccc(N2C(=S)N(c3ccc(C#N)c(C(F)(F)F)c3)C(=O)C2(C)C)cc1F,"122, 100, 87.1, 119%"
6,Cc1nc(NC(=O)N2CCCC2C(N)=O)sc1-c1ccnc(C(C)(C)C(F)(F)F)c1 (stereo not drawn),"79.9, 62.4, 87.7, 75.3, 87, 79.6, 73.3, 92.6%"

# Same assay, conditions: compound alone 3 µM; stronger effect = lower value
row,Compound,"viability, T/C"
1,Cn1cnc2c(F)c(Nc3ccc(Br)cc3Cl)c(C(=O)NOCCO)cc21,"86.5, 85.9, 60.8, 72.3%"

# Same assay, conditions: compound alone 3.16 µM; stronger effect = lower value
row,Compound,"viability, T/C"
1,CC(Nc1ncnc2nc[nH]c12)c1cc2cccc(Cl)c2c(=O)n1-c1ccccc1 (stereo not drawn),"97, 99.4, 105, 97.1, 111, 87.5, 102, 116%"
2,C=CC(=O)N1CCN(c2nc(=O)n(-c3c(C)ccnc3C(C)C)c3nc(-c4c(O)cccc4F)c(F)cc23)C(C)C1 (stereo not drawn),"115, 77.7, 81.9, 70.7%"
3,CNC(=O)c1ccc(N2C(=S)N(c3ccc(C#N)c(C(F)(F)F)c3)C(=O)C2(C)C)cc1F,"89.2, 102, 117, 90.8%"
4,Cc1nc(NC(=O)N2CCCC2C(N)=O)sc1-c1ccnc(C(C)(C)C(F)(F)F)c1 (stereo not drawn),"98.7, 77.8, 88.8, 82.1, 105, 82.9, 81.2, 101%"

# Same assay, conditions: compound alone 10 µM; stronger effect = lower value
row,Compound,"viability, T/C"
1,CC(Nc1ncnc2nc[nH]c12)c1cc2cccc(Cl)c2c(=O)n1-c1ccccc1 (stereo not drawn),"108 (2×), 116, 115, 106, 113, 91.8, 117%"
2,C[C@@H](NC(=O)c1ncnc(N)c1Cl)c1ncc(C(=O)Nc2cc(C(F)(F)F)c(Cl)cn2)s1,"73, 93.5, 64.3, 63.8%"
3,Cn1nccc1Nc1nccc(-c2ccn(C(CO)c3ccc(Cl)c(F)c3)c(=O)c2)n1 (stereo not drawn),"113, 98.5, 90, 82.8%"
4,CNC(=O)c1ccc(N2C(=S)N(c3ccc(C#N)c(C(F)(F)F)c3)C(=O)C2(C)C)cc1F,"98.1, 143, 84.9, 106%"
